Results reported in the supplement of paper PMC8728848.
Some of the results follow.

Experiments:
Assay in all cases: glycan array binding signal (z-score within array); higher = stronger binding
Details in all cases: glycan notation: IUPAC condensed, linker removed
Gal(b1-2)Gal = target: Gal(b1-2)Gal
Summary of the method: (§1)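 From the Consortium for Functional Glycomics database, 3228 arrays were curated, keeping only those whose protein sequence was available. Binding is given as a within-array Z-score averaged across arrays sharing a protein sequence and across linkers. Negative Z-scores can be read as non-binding.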

Gal(b1-3)Gal = target: Gal(b1-3)Gal
Summary of the method: as §1

Gal(b1-3)Gal(b1-4)GlcNAc = target: Gal(b1-3)Gal(b1-4)GlcNAc
Summary of the method: as §1

Gal(b1-3)GalNAc = target: Gal(b1-3)GalNAc
Summary of the method: as §1

[1] = target: Gal(b1-3)GalNAc(a1-3)[Fuc(a1-2)]Gal(b1-4)Glc
Summary of the method: as §1

[2] = target: Gal(b1-3)GalNAc(a1-3)[Fuc(a1-2)]Gal(b1-4)GlcNAc
Summary of the method: as §1

Gal(b1-3)GalNAc(b1-3)Gal = target: Gal(b1-3)GalNAc(b1-3)Gal
Summary of the method: as §1

[3] = target: Gal(b1-3)GalNAc(b1-3)Gal(a1-4)Gal(b1-4)Glc
Summary of the method: as §1

[4] = target: Gal(b1-3)GalNAc(b1-4)Gal(b1-4)Glc
Summary of the method: as §1

[5] = target: Gal(b1-3)GalNAc(b1-4)[Neu5Ac(a2-3)]Gal(b1-4)Glc
Summary of the method: as §1

Gal(b1-3)GlcNAc = target: Gal(b1-3)GlcNAc
Summary of the method: as §1

[6] = target: Gal(b1-3)GlcNAc(a1-3)Gal(b1-4)GlcNAc
Summary of the method: as §1

[7] = target: Gal(b1-3)GlcNAc(a1-6)Gal(b1-4)GlcNAc
Summary of the method: as §1

Gal(b1-3)GlcNAc(b1-2)Man = target: Gal(b1-3)GlcNAc(b1-2)Man
Summary of the method: as §1

[8] = target: Gal(b1-3)GlcNAc(b1-2)Man(a1-3)[Gal(b1-3)GlcNAc(b1-2)Man(a1-6)]Man(b1-4)GlcNAc(b1-4)GlcNAc
Summary of the method: as §1

[9] = target: Gal(b1-3)GlcNAc(b1-2)Man(a1-3)[Gal(b1-3)GlcNAc(b1-2)Man(a1-6)]Man(b1-4)GlcNAc(b1-4)[Fuc(a1-6)]GlcNAc
Summary of the method: as §1

[10] = target: Gal(b1-3)GlcNAc(b1-2)Man(a1-3)[GlcNAc(b1-4)][Gal(b1-3)GlcNAc(b1-2)Man(a1-6)]Man(b1-4)GlcNAc(b1-4)GlcNAc
Summary of the method: as §1

[11] = target: Gal(b1-3)GlcNAc(b1-2)[Gal(b1-3)GlcNAc(b1-6)]Man(a1-6)[Gal(b1-3)GlcNAc(b1-2)Man(a1-3)]Man(b1-4)GlcNAc(b1-4)GlcNAc
Summary of the method: as §1

[12] = target: Gal(b1-3)GlcNAc(b1-3)Gal(b1-3)GlcNAc
Summary of the method: as §1

[13] = target: Gal(b1-3)GlcNAc(b1-3)Gal(b1-4)Glc
Summary of the method: as §1

[14] = target: Gal(b1-3)GlcNAc(b1-3)Gal(b1-4)GlcNAc
Summary of the method: as §1

[15] = target: Gal(b1-3)GlcNAc(b1-3)Gal(b1-4)GlcNAc(b1-2)Man(a1-3)[Gal(b1-3)GlcNAc(b1-3)Gal(b1-4)GlcNAc(b1-2)Man(a1-6)]Man(b1-4)GlcNAc(b1-4)GlcNAc
Summary of the method: as §1

[16] = target: Gal(b1-3)GlcNAc(b1-3)Gal(b1-4)GlcNAc(b1-2)[Gal(b1-3)GlcNAc(b1-3)Gal(b1-4)GlcNAc(b1-6)]Man(a1-6)[Gal(b1-3)GlcNAc(b1-3)Gal(b1-4)GlcNAc(b1-2)Man(a1-3)]Man(b1-4)GlcNAc(b1-4)[Fuc(a1-6)]GlcNAc
Summary of the method: as §1

[17] = target: Gal(b1-3)GlcNAc(b1-3)Gal(b1-4)GlcNAc(b1-3)Gal(b1-4)GlcNAc(b1-2)[Gal(b1-3)GlcNAc(b1-3)Gal(b1-4)GlcNAc(b1-3)Gal(b1-4)GlcNAc(b1-6)]Man(a1-6)[Gal(b1-3)GlcNAc(b1-3)Gal(b1-4)GlcNAc(b1-3)Gal(b1-4)GlcNAc(b1-2)Man(a1-3)]Man(b1-4)GlcNAc(b1-4)[Fuc(a1-6)]GlcNAc
Summary of the method: as §1

[18] = target: Gal(b1-3)GlcNAc(b1-3)Gal(b1-4)GlcNAc(b1-6)[Gal(b1-3)GlcNAc(b1-3)]Gal(b1-4)Glc
Summary of the method: as §1

[19] = target: Gal(b1-3)GlcNAc(b1-3)Gal(b1-4)[Fuc(a1-3)]GlcNAc
Summary of the method: as §1

[20] = target: Gal(b1-3)GlcNAc(b1-3)Gal(b1-4)[Fuc(a1-3)]GlcNAc(b1-6)[Gal(b1-3)GlcNAc(b1-3)]Gal(b1-4)Glc
Summary of the method: as §1

[21] = target: Gal(b1-3)GlcNAc(b1-3)GalNAc
Summary of the method: as §1

[22] = target: Gal(b1-3)GlcNAc(b1-6)Gal(b1-4)GlcNAc
Summary of the method: as §1

[23] = target: Gal(b1-3)GlcNAc(b1-6)GalNAc
Summary of the method: as §1

[24] = target: Gal(b1-3)GlcNAc(b1-6)[Gal(b1-3)]GalNAc
Summary of the method: as §1

Gal(b1-3)GlcNAc6S = target: Gal(b1-3)GlcNAc6S
Summary of the method: as §1

[25] = target: Gal(b1-3)[Fuc(a1-4)]GlcNAc
Summary of the method: as §1

[26] = target: Gal(b1-3)[Fuc(a1-4)]GlcNAc(b1-2)Man
Summary of the method: as §1

[27] = target: Gal(b1-3)[Fuc(a1-4)]GlcNAc(b1-2)Man(a1-3)[Gal(b1-3)[Fuc(a1-4)]GlcNAc(b1-2)Man(a1-6)]Man(b1-4)GlcNAc(b1-4)[Fuc(a1-6)]GlcNAc
Summary of the method: as §1

[28] = target: Gal(b1-3)[Fuc(a1-4)]GlcNAc(b1-3)Gal(b1-3)[Fuc(a1-4)]GlcNAc
Summary of the method: as §1

[29] = target: Gal(b1-3)[Fuc(a1-4)]GlcNAc(b1-3)Gal(b1-4)[Fuc(a1-3)]GlcNAc
Summary of the method: as §1

[30] = target: Gal(b1-3)[Fuc(a1-4)]GlcNAc(b1-6)GalNAc
Summary of the method: as §1

[31] = target: Gal(b1-3)[GlcNAc(b1-6)]GalNAc
Summary of the method: as §1

[32] = target: Gal(b1-3)[Neu5Ac(a2-6)]GalNAc
Summary of the method: as §1

[33] = target: Gal(b1-3)[Neu5Ac(a2-6)]GlcNAc(b1-4)Gal(b1-4)Glc
Summary of the method: as §1

[34] = target: Gal(b1-3)[Neu5Ac(b2-6)]GalNAc
Summary of the method: as §1

Gal(b1-4)Gal = target: Gal(b1-4)Gal
Summary of the method: as §1

[35] = target: Gal(b1-4)GalNAc(a1-3)[Fuc(a1-2)]Gal(b1-4)GlcNAc
Summary of the method: as §1

[36] = target: Gal(b1-4)GalNAc(b1-3)[Fuc(a1-2)]Gal(b1-4)GlcNAc
Summary of the method: as §1

B1: Pwp5 ND (Candida glabrata) (protein)
chain: MGSSHHHHHHSSGLVPRGSHMASANPVPLTNVCYFPEEYPRQAGFRAITAGLASTILQGSVDELLNYSGLSSLTTQQTTTTTPNFQLPTLPLPTNVYGLTVVPLYLLVQLQGYFVPPVSGQYTFSLENTNDAAIIFFGNPSAFPCGDLSAWPQASADDITVTDGTFPSRTLFLKAGVAYPMRISYYNSLGSGNLAVSFTDPGGTKRTNWNGYIWRYNSCSTCTYT
- glycan array binding signal (z-score) (Gal(b1-2)Gal): -0.535
- glycan array binding signal (z-score) (Gal(b1-3)Gal): -0.425
- glycan array binding signal (z-score) (Gal(b1-3)Gal(b1-4)GlcNAc): -0.337
- glycan array binding signal (z-score) (Gal(b1-3)GalNAc): -0.212
- glycan array binding signal (z-score) [1]: -0.375
- glycan array binding signal (z-score) [2]: -0.604
- glycan array binding signal (z-score) (Gal(b1-3)GalNAc(b1-3)Gal): -0.575
- glycan array binding signal (z-score) [3]: 3.41
- glycan array binding signal (z-score) [4]: 0.818
- glycan array binding signal (z-score) [5]: -0.51
- glycan array binding signal (z-score) (Gal(b1-3)GlcNAc): -0.574
- glycan array binding signal (z-score) [6]: -0.125
- glycan array binding signal (z-score) [7]: 0.15
- glycan array binding signal (z-score) (Gal(b1-3)GlcNAc(b1-2)Man): -0.011
- glycan array binding signal (z-score) [8]: 0.069
- glycan array binding signal (z-score) [9]: -0.447
- glycan array binding signal (z-score) [10]: -0.313
- glycan array binding signal (z-score) [11]: -0.313
- glycan array binding signal (z-score) [12]: 0.281
- glycan array binding signal (z-score) [13]: -0.276
- glycan array binding signal (z-score) [14]: -0.522
- glycan array binding signal (z-score) [15]: -0.703
- glycan array binding signal (z-score) [16]: 1.78
- glycan array binding signal (z-score) [17]: 0.093
- glycan array binding signal (z-score) [18]: -0.519
- glycan array binding signal (z-score) [19]: -0.433
- glycan array binding signal (z-score) [20]: -0.695
- glycan array binding signal (z-score) [21]: -0.596
- glycan array binding signal (z-score) [22]: -0.247
- glycan array binding signal (z-score) [23]: 1.1
- glycan array binding signal (z-score) [24]: -0.506
- glycan array binding signal (z-score) (Gal(b1-3)GlcNAc6S): -0.528
- glycan array binding signal (z-score) [25]: -0.117
- glycan array binding signal (z-score) [26]: -0.302
- glycan array binding signal (z-score) [27]: -0.004
- glycan array binding signal (z-score) [28]: 0.226
- glycan array binding signal (z-score) [29]: 0.251
- glycan array binding signal (z-score) [30]: -0.101
- glycan array binding signal (z-score) [31]: -0.307
- glycan array binding signal (z-score) [32]: 0.118
- glycan array binding signal (z-score) [33]: -0.51
- glycan array binding signal (z-score) [34]: -0.148
- glycan array binding signal (z-score) (Gal(b1-4)Gal): -0.418
- glycan array binding signal (z-score) [35]: -0.839
- glycan array binding signal (z-score) [36]: -0.47
